Source: US12662541B2, “Antibody-drug conjugates against the receptor tyrosine kinase EphA5” (Rutgers, The State University of New Jersey, priority 2021, dated 2026)
Entries after “also recorded” stand apart in the source; their conditions may differ.

B1: VH5/VK3: humanized anti-EphA5 IgG1/kappa antibody, heavy chain SEQ ID NO:39, light chain SEQ ID NO:40 (antibody)
heavy: EVQLVESGGGLVQPGGSLKLSCAASGFTFSTFGIHWVRQAPGKGLEWVAYISGASTTIYYADSVKGRFTISRDNSKNTLYLQMNSLRAEDTAVYYCARYGTSFPYGLDYWGQGTLVTVSSASTKGPSVFPLAPSSKSTSGGTAALGCLVKDYFPEPVTVSWNSGALTSGVHTFPAVLQSSGLYSLSSVVTVPSSSLGTQTYICNVNHKPSNTKVDKRV[letters of human IgG1 Fc left out]
light: DIVMTQSPDSLAVSLGERATINCKASQSVDYDGDSYMNWYQQKPGKAPKLLIYGASNLESGIPDRFSGSGSGTDFTLTISRLEPEDAAVYYCQQSNEDPFTFGQGTKLEIKRTVAAPSVFIFPPSDEQLKSGTASVVCLLNNFYPREAKVQWKVDNALQSGNSQESVTEQDSKDSTYSLSSTLTLSKADYEKHKVYACEVTHQGLSSPVTKSFNRGEC
B2: VH5Vk3-ThioBridge®-VCP-MMAE (conjugate)
heavy: B1 heavy
light: B1 light

Legend:
[1] = tested on: EphA5+ cells (H460 human lung cancer cells); experiment: Antibody internalization, EphA5+ cells; format: cell-based
rhEphA5 antigen = target: T1, rhEphA5 antigen (Homo sapiens, UniProt P54756); experiment: ka (1/Ms)
T1 construct: purchased R and D systems 3036-A5
Procedure: Table printed on a drawing sheet, FIG. 13
(§1) Head of the field: ka (1/Ms)
The patent's description of the figure: FIG. 13 is a table illustrating the single cycle kinetic parameters of chimeric (VH0/VK0) and humanized 11C12 variants (tested as cell culture supernatants) binding to rhEphA5 antigen as determined using the Biacore T200. The relative KD was calculated by dividing the KD of the humanized variant by that of the VH0/VK0 (top row) assayed in the same experiment. The variants marked with ‘*’ have KD values that are within two-fold of, or are better than, the chimeric antibody. The chimeric and selected variants marked in ‘#’ were identified as the main leads for purification. […]
Where the first naming reader finds the target: description_of_the_figure: humanized 11C12 variants (tested as cell culture supernatants) binding to rhEphA5 antigen as determined using the Biacore T200

EphA5 antigen [2] = target: T2, EphA5 antigen (Homo sapiens, UniProt P54756); experiment: ka (1/Ms)
T2 construct: purchased R and D systems 3036-A5
Procedure: (§2) Table printed on a drawing sheet, FIG. 19
as §1
(§3) The patent's description of the figure: FIG. 19 is a table illustrating the Multi-cycle kinetic parameters of chimeric (VH0/VK0) and humanized variants (tested as purified proteins) binding to EphA5 antigen as determined using the Biacore T200. The relative KD was calculated by dividing the KD of the humanized variant by that of the VH0VK0 (first row) assayed in the same experiment. […]
(§4) Where the first naming reader finds the target: description_of_the_figure: humanized variants (tested as purified proteins) binding to EphA5 antigen as determined using the Biacore T200

EphA5 antigen [3] = target: T2, EphA5 antigen; experiment: kd (1/s)
Procedure: as §2
Head of the field: kd (1/s)
as §3, §4

[4] = tested on: H460 cells (EphA5-positive); experiment: Cell death time-course (Green Object Count), H460; format: cell-based, human; conditions: dose- and time-dependent, FIG. 4A
[5] = tested on: PDX model TM00188 (LG0520F), lung squamous cell carcinoma; experiment: PDX TM00188 efficacy; format: in vivo, mice; conditions: 5 weekly doses of 10 mg/kg tail vein, ADC2 = VH5Vk3-ThioBridge®-VCP-(SN-38)2, listed as ADC1, 10 mg/kg
Procedure: (§5) The present studies were performed using female NSG™ mice implanted with the PDX model TM00188 (LG0520F) purchased from Jackson Laboratories. These mice are extremely immunodeficient and carry two mutations: severe combined immune deficiency (scid) and a complete null allele of the IL2 receptor common gamma chain (IL2rg^null). The scid mutation is a mutation in the DNA repair complex protein Prkdc and renders the mice B and T cell deficient. The IL2rg^null mutation prevents cytokine signaling through multiple receptors, leading to a deficiency in functional NK cells. This severe immunodeficiency allows the implantation of PDX and growth of human tissue-based tumors in the mice. These tumors have similar characteristics to the human tumors from which they are derived (e.g., gene expression) and are predictive of human response to therapeutic agents.
Mice received 5 weekly doses of ADC1 or ADC2 at 10 mg/kg or PBS via tail vein injection. Animals were dosed on days 0, 7, 14, 21 and 28 followed by 3 weeks of observation (day 28-50) without treatment. The number of mice used per group averaged n=10 with some mice presenting with more than 1 tumor implanted subcutaneously. In those cases, each tumor size was measured and recorded independently. Measurements were performed 2-3 times weekly with the aid of a digital caliper (Fisherbrand™ Traceable™ Digital Carbon Fiber Calipers). […]

[6] = tested on: PDX TM00219 (LG1049F), lung adenocarcinoma; experiment: PDX TM00219 efficacy; format: in vivo, mice
Procedure: as §5, with “mice” for “mice implanted with the PDX model TM00188 (LG0520F)”, “Laboratories, reference number TM00219 (LG1049F).” for “Laboratories.”, “patient derived xenografts (PDX)” for “PDX”
Mice received 5 weekly doses of ADC1 or ADC2 at 10 mg/kg or PBS via tail vein injection. Animals were dosed on days 0, 7, 14, 21 and 28 followed by 3 weeks of observation (day 28-50) without treatment. The number of mice used per group averaged n=8 with some mice presenting with more than 1 tumor implanted subcutaneously. In those cases, each tumor size was measured and recorded independently. Measurements were performed 2-3 times weekly with the aid of a digital caliper (Fisherbrand™ Traceable™ Digital Carbon Fiber Calipers). Studies lasted on average 50 days or until maximum allowed tumor volume was reached and/or skin ulceration was noted. All studies included a control group of an equal number of mice to those in the treatment group. Control groups received PBS tail vein injections and were submitted to the same handling procedures as ADC1 and ADC2 treated mice. First treatment was administered when tumors reached 100-150 mm^3 volume.

[7] = Body weight and tolerability of PDX-bearing mice before and after treatment

T2 sequence (P54756 25-1037 limits assumed): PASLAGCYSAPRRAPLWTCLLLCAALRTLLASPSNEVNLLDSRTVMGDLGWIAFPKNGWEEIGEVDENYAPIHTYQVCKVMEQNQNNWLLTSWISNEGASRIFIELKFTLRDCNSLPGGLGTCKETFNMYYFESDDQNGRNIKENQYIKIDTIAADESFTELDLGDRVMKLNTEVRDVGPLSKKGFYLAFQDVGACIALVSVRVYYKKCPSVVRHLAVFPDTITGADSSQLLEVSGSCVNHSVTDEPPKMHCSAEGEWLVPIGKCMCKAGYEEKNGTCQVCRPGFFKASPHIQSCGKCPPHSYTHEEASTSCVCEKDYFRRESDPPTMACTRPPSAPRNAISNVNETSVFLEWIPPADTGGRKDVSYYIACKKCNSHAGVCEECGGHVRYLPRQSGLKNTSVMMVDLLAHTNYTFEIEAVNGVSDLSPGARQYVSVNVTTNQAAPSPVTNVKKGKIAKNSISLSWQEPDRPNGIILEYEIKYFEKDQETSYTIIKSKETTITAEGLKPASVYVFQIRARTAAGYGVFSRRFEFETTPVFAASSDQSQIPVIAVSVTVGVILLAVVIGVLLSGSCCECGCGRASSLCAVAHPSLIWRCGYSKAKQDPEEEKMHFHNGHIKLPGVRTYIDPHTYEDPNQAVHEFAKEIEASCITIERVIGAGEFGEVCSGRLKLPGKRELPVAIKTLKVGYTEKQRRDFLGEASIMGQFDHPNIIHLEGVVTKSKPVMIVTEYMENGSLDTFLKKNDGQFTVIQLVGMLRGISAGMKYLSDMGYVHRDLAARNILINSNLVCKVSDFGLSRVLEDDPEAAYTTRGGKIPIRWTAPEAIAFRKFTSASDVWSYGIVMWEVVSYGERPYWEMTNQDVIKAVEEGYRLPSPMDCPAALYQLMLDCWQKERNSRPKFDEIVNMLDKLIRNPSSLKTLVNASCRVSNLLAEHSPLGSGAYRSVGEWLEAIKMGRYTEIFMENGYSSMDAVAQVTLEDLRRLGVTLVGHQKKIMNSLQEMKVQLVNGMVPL
T1 sequence (P54756 25-1037 limits assumed): as above

| Molecule | internalization of bound antibody ([1]; EphA5+ cells, various concentrations) | internalization in H460 cells ([1]; FIG. 2A) | ka (rhEphA5 antigen) | ka (EphA5 antigen [2]) | kd (EphA5 antigen [3]) | killing of EPHA5+ cells [4] | tumor response (tumor volume) [5] | tumors remaining at the end of the study [6] | tumor response (tumor volume) ([6]; 5 weekly doses of 10 mg/kg tail vein, ADC2 = VH5Vk3-ThioBridge®-VCP-(SN-38)2) | tumors regressed completely ([6]; of a total of 11 tumors) | change in body weight before and after treatment ([7]; TM00096-bearing mice, 10 mg/kg weekly, ADC2 = VH4Vk3-ThioBridge-VCP-MMAE, listed as ADC1, 10 mg/kg) | tolerability ([7]; TM00098-bearing mice, 10 mg/Kg weekly for 5 doses, ADC2 = VH5Vk3-ThioBridge®-VCP-(SN-38)2) | change in body weight before and after treatment ([7]; TM00098-bearing mice, ADC2 = VH5Vk3-ThioBridge®-VCP-(SN-38)2, listed as ADC1) | change in body weight before and after treatment ([7]; TM00188-bearing mice, ADC2 = VH5Vk3-ThioBridge®-VCP-(SN-38)2, listed as ADC1) | change in body weight before and after treatment ([7]; TM00219-bearing mice, ADC2 = VH5Vk3-ThioBridge®-VCP-(SN-38)2, listed as ADC1) | change in body weight before and after treatment ([7]; TM00226-bearing mice, ADC2 = VH5Vk3-ThioBridge®-VCP-(SN-38)2, listed as ADC1) |
| --- | --- | --- | --- | --- | --- | --- | --- | --- | --- | --- | --- | --- | --- | --- | --- | --- |
| B1 | internalized into EphA5+ cells but not EphA5− cells and trafficked to lysosome | dose dependent | 1.36e-06 M⁻¹ s⁻¹ | 1.21e-06 M⁻¹ s⁻¹ | 0.00135 s⁻¹ | – | – | – | – | – | – | – | – | – | – | – |
| B2 | – | – | – | – | – | able to kill EPHA5+ cells | complete and sustained regression of all tumors; also recorded: full and sustained regression of tumors | Five | full and sustained regression of tumors | 6 tumors | no significant changes in body weight; also recorded: no significant differences in body weight | well tolerated for both ADC1 and ADC2, and no toxicity or weight loss was observed | no significant changes in body weight; also recorded: did not show significant changes in body weight | no significant changes in body weight; also recorded: did not show significant changes in body weight | no significant changes in body weight; also recorded: did not show significant changes in body weight | no significant changes in body weight; also recorded: did not show significant changes in body weight |
